Article PMC10726135
The other results are listed elsewhere or left out. At the low end of the ranking the order means little. The protein was read in a cell extract, so binding may be indirect.

target: T1, HNF4alpha8 (COS-7 nuclear extract) (UniProt P41235-5); assay: protein-binding microarray; conditions: COS-7 nuclear extract on double-stranded Agilent 4x180k PBM; binding buffer, salt, pH and temperature not given; high values mean tight binding; double strand, one strand shown; sequences stand for … in …GCCTAGGGAGATTAGAGTATCGGTCGA
T1 sequence: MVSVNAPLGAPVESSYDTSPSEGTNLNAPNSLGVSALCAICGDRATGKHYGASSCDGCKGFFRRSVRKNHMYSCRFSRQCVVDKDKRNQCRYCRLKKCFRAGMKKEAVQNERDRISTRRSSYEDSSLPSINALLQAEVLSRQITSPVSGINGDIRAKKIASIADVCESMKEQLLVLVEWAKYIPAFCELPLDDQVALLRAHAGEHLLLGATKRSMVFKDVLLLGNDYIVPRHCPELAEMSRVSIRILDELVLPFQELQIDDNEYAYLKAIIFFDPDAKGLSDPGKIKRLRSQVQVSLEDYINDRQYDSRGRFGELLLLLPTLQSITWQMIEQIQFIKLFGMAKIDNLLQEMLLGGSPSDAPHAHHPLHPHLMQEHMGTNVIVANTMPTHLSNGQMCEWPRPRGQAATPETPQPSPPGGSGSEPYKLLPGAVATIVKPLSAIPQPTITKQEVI

| Sequence | binding signal (log2 normalized intensity) |
| --- | --- |
| TTTCCAGTCTAAAATACCTGTTCTCCAGCT | -1.31 |
| GTTGTCTGTGACTGGGGTCAAACTCCACAT | 6.97 |
| AGTGCCTGCTTGCAGATAAAACATTTTTTT | 0.0478 |
| CTATGTCAGGCCATTTCACCTTTGCCCTGT | 7.53 |
| CTGTCCAGCAGACAATGGGAGACATTCCTT | -1.36 |
| AGAAATCTCCAAGTCAAACATTAGCCAGGA | -1.26 |
| ACCCTGCTGTAGTGTGTAAGTATGCTCACT | 1 |
| TACACACCATAAGAGGCTCTAGATCTCAAA | -1.18 |
| CGCTCCCTGTGCCCACTTTCCTGGGCCGGG | -1.25 |
| TGGATCATGTGTCTGAGCAAGTTTCCTCCT | -0.366 |
| CGTCAGGAGGAAGCAGCGATGGAAGGGATG | -1.23 |
| GCGCGTGGCCCAAGGCCTCTGACATAAATC | -1.47 |
| TCACCTGCTCATTGACCCTTAGGCCAAGGC | 3.1 |
| TCAGAAGCAGGTCAATAGGGCAGGGGGGAG | 1.54 |
| AGTCTGGGAAGCTGTGTGAAGTGACTTGCC | 0.676 |
| AGGGCAGATAACAAGGGCATGTAAAGGAGA | -1.48 |
| TCGCACTTCAGCACCATAAAGATAAGCAAG | -1.18 |
| TGAATATCTGGCAAATTTGCATTAGTGGAG | 1.34 |
| AGCCCTTAGGACCAGGGGGGGAATGCACAG | -1.35 |
| AGAGTGGACTCACAGCAGGAGGGCTTTCAC | -1.31 |
| TCCGAATTGGGGGAGGGTAGTCTATCTCAT | -1.4 |
| CAGTAACTGTCATGGATGACCTCTTTTAGT | 3.57 |
| TTAGCTTTCAGTGACTGCTCATTCTTGACC | 2.23 |
| GCAGACCTGCCAAAGTGTACCCTGTGCTTC | 2.31 |

| Sequence | binding signal (log2 normalized intensity) |
| --- | --- |
| CGAACCTGTCTCCAGAGGACTTGCGGTGTT | -1.08 |
| ATAGGTTACCTTGACCAAAGTACAGTAATT | 3.24 |
| GGACTCCCAAGATGGATTGGGTCCACACAT | 2.25 |
| GCTGCGGTGGGCTCCACCCAGTTCGTGCTT | -1.23 |
| TCCTAGAGTCCCTATTTGCTTGTGAATGAA | 0.61 |
| AATAAAATCTGGCAGCTTAAAAATGTTGAC | -1.15 |
| CCAGGCCTCCAGCTCTTTTGAACCCAAGGC | 2.76 |
| CTGCTTGTGAGACCGGTTCCGCGGTCCGCA | -1.3 |
| CTTCTGTTTAAACTGATAACCTTGCCCAAC | 0.853 |
| TCGAGGCCAGGGATTAAAGAATTCGTCCAG | -1.41 |
| GTATTGCAAGTATTTCACCCCAGAGGCTAA | 2.44 |
| TGAGTTCTTATCTAGGTAAGTATAGTGGGA | 0.775 |
| TTAGATCAGAGGTCTAATTCCCAAGGGTAT | -0.116 |
| TCTGGCATAGGAACAAAGGTTGGTGTGAAC | 2.17 |
| CAGAAATGCCGCTAATGTATTTCGGGGCAC | 0.877 |
| CTCAAGAAAGGATCTCACCCAAACCATCCC | 1.4 |
| GCATACAGGGTCCAAAGGTGTCAAGAACAT | 3.56 |
| TCCTTAGTGCATGGGAACTTCTCACCTTCA | -1.11 |
| TGTGATCTACTCCCTGTTCTTACACCTGCT | -1.21 |
| ACCTCAGAGAGCCGGAAACTCCACCTTCAG | -1.27 |
| GTATTTATCAACATTCTTTCTGATAATAGA | -0.146 |
| CCTGCCAAAGTTATCAAGTTGCTTAAATTC | -0.393 |
| TAGCTGAGGGCGCTGTTGATGGGCAGCGCG | -1.36 |
| TAGACTATGCCAAACATTTCCTGCCTTTCA | -1.31 |

| Sequence | binding signal (log2 normalized intensity) |
| --- | --- |
| TGCCCTTTGCCTCCCTGCATTCCATTTCTG | 2.75 |
| TCTTCCAGCGGGTGCTTAAAAGATAACAGT | -1.05 |
| TTGAAGTCTGCCCTCCATGTAACCCCTTTT | 3.98 |
| TCTACAGGACAGCCAGGCAGTCGGGAAATT | -1.2 |
| CTGCTCTGGGCTTTCTCTGCCTCCATCCCT | -1.18 |
| AAAGGAGGCAAGGTCCAAACTTCTCCACTC | 2.07 |
| GACACCAAACACAGTTGCTGTCTAGAAAGA | -1.32 |
| CTGAAAAACAAAATGCATTTCCTTATTCTT | -1.28 |
| TCAAGAGGATTACATAACCACCACTGGGCA | -1.44 |
| GGGCCTCAGAGAAAGCCTGTTTGCTTCTGC | -1.52 |
| TGTTTGGATGCCAAATTCCTCCCACTCTGA | 0.294 |
| AAGACCAAAGGTCATGGCAACAGTTTTCTG | 4.51 |
| GAGGGAAGGAGCCTAACTTTGATAGGCACA | -1.29 |
| TTTTAGAGATCAGGATACCAAGGCTCAGAG | -1.2 |
| TGTTTCCAATAGGTTTGATTTCAGCATGTT | 1.07 |
| ACTCTATGTTAGGCTGGAAAACTGGGCTGT | -1.25 |
| GCTGTGTCCCACAGGGAAAGTATGGGTCAG | 1.38 |
| GCCTTTAATCAACTGCAGGAGTCGGGAGGT | -1.21 |
| CCCTGCATCCACATGGGCGTCACCAACCAG | 2.16 |
| CAGTAACAGGGAGTCTGTTGCAAGCAATGG | -1.43 |
| AACCCCTTTTCAATTCCTTATCTCGTTCTG | 0.721 |
| AAACACTGAACCTTGTCCCACTCTTGGGTC | 2.49 |
| ACAGTTGCTGTCTAGAAAGATTGCAGCAAG | -1.19 |
| GGGTTAAAGTCTACAACCAGAACTTCTTAT | 1.71 |

| Sequence | binding signal (log2 normalized intensity) |
| --- | --- |
| TCATTTCCCCATTCCTAAGTTCCAAAGGCC | 3.83 |
| AGGCTGAGGTTTTCATCCCAGGGCTGGGGA | -1.17 |
| CCTGGTCACTATTGACATTTGGGGTCAGAT | 4.28 |
| TGGAAAGGTGAATGTACAAAGGTCAACGGC | 6.5 |
| ACAGACCTTTGTATATTCCCTTTGTATGGC | 2.06 |
| CGTTAACATCAGCTGAGCAGAGAGGACCCT | 1.6 |
| AGGAGGACATACTCCTACCACCAAAGAAAA | -1.15 |
| GTATACTGACTAGGACAGAGCAGATGAAAG | -1.34 |
| TAAGCTCATGCTTTCATCTCCCCAACACTT | 3.52 |
| AGCCATTAGGCTGATGCCCTTTGGATTTAG | 4.65 |
| TTAGGCCTCGGGAGTCTGGCTGCCCTGGGG | -0.712 |
| GTCCTACAAATGATCAAAGGTTGGTCTTAG | 3.41 |
| TGTGTAGACATCACCTGCTCATTGACCCTT | 5.99 |
| GATCCCGGGAGGGAGAGAAGGACATCTATC | -1.26 |
| GTGTGAGGTCCAAGCAGATGCTTTGAAGTG | 0.283 |
| TTTTGATCAAGGAGGACTTTGGAATGGCAG | 4.79 |
| GCCAAAAGGTGCTACCACGAGAGTAGAGAG | -1.22 |
| AGATTTGACCTACGGACCATGGATCGCCAA | 2.69 |
| GGACGTCCCCGGGCGGGATGGGGTCACGAG | 3.04 |
| CTCAAGCCAGACTGGTTTTTCTTGGGTGTA | 1.76 |
| CTGATAAAACAGCATGCGGTAAAGAAGCCA | -1.33 |
